In this assay the test system is A673/TR/shEF. Put plainly: cell viability (LOESS-normalised, relative to median of negative controls) (log2 ratio); higher = more viable cells (less compound effect), active = hit call of the paper (over 3 MAD below the median). The conditions noted are these: treatment time: 72 h. The essentials: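 A673/TR/shEF Ewing sarcoma cells (1,500 per well, 384-well plates) were grown with or without doxycycline to induce EWS-FLI1 shRNA knockdown, starting 24 h before compounds. Library compounds at two or more concentrations, with DMSO controls, were added for three days. Cell viability was read by CellTiter-Glo luminescence on an Envision reader, then LOESS-corrected per plate, divided by the median of negative controls and log2-transformed. Hits were wells at least three median absolute deviations from the median of all screened wells.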

Setting [1] is: 0.25 µM, library screen: screen1, EWS-FLI1 expression: high (no doxycycline).
[2] abbreviates: 0.25 µM, library screen: screen1, EWS-FLI1 expression: low (doxycycline-induced shRNA knockdown).
The mark [3] stands for this setting: 2.5 µM, library screen: screen1, EWS-FLI1 expression: high (no doxycycline).
The mark [4] stands for this setting: 2.5 µM, library screen: screen1, EWS-FLI1 expression: low (doxycycline-induced shRNA knockdown).
Setting [5] is: 0.103 µM, library screen: screen3, EWS-FLI1 expression: high (no doxycycline).
The mark [6] stands for this setting: 0.103 µM, library screen: screen3, EWS-FLI1 expression: low (doxycycline-induced shRNA knockdown).
The mark [7] stands for this setting: 0.308 µM, library screen: screen3, EWS-FLI1 expression: high (no doxycycline).
[8] abbreviates: 0.308 µM, library screen: screen3, EWS-FLI1 expression: low (doxycycline-induced shRNA knockdown).
Where [9] appears, read: 0.926 µM, library screen: screen3, EWS-FLI1 expression: high (no doxycycline).
The mark [10] stands for this setting: 0.926 µM, library screen: screen3, EWS-FLI1 expression: low (doxycycline-induced shRNA knockdown).
Setting [11] is: 2.8 µM, library screen: screen3, EWS-FLI1 expression: high (no doxycycline).
Where [12] appears, read: 2.8 µM, library screen: screen3, EWS-FLI1 expression: low (doxycycline-induced shRNA knockdown).
[13] abbreviates: 8.3 µM, library screen: screen3, EWS-FLI1 expression: high (no doxycycline).
Setting [14] is: 8.3 µM, library screen: screen3, EWS-FLI1 expression: low (doxycycline-induced shRNA knockdown).
Where [15] appears, read: 25 µM, library screen: screen3, EWS-FLI1 expression: high (no doxycycline).
[16] abbreviates: 25 µM, library screen: screen3, EWS-FLI1 expression: low (doxycycline-induced shRNA knockdown).
Setting [17] is: 0.25 µM, library screen: screen2, EWS-FLI1 expression: high (no doxycycline).
The mark [18] stands for this setting: 0.25 µM, library screen: screen2, EWS-FLI1 expression: low (doxycycline-induced shRNA knockdown).
Setting [19] is: 2.5 µM, library screen: screen2, EWS-FLI1 expression: high (no doxycycline).
The mark [20] stands for this setting: 2.5 µM, library screen: screen2, EWS-FLI1 expression: low (doxycycline-induced shRNA knockdown).

The campaign covered roughly 3,200 compounds. About 300 (9.4%) showed activity. Only a part is listed here, and it is no random draw.

For the molecule `CN[C@@H]1[C@H](O[C@H]2[C@H](O[C@H]3[C@H](O)[C@@H](O)[C@H](N=C(N)N)[C@@H](O)[C@@H]3N=C(N)N)O[C@@H](C)[C@]2(O)C=O)O[C@@H](CO)[C@H](O)[C@H]1O`, the “cell viability (log2)” value by setting is: under setting [1], inactive: 0.0829; under setting [2], inactive: 0.128; under setting [3], inactive: 0.11; under setting [4], inactive: 0.129.

On to `Cc1cccc(C(=O)O)c1O`, for which the “cell viability (log2)” value by setting is: under setting [1], inactive: 0.098; under setting [2], inactive: 0.0424; under setting [3], inactive: 0.0687; under setting [4], inactive: 0.0506.

Take `OCCOCCN1CCN(C2=Nc3ccccc3Sc3ccccc32)CC1`: the “cell viability (log2)” value reads like this: under setting [5], inactive: 0.129; under setting [6], inactive: 0.0203; under setting [7], inactive: 0.116; under setting [8], inactive: 0.0367; under setting [9], inactive: 0.0851; under setting [10], inactive: 0.0431. For the same molecule, the “cell viability (log2)” value runs as follows: under setting [11], inactive: 0.0968; under setting [12], inactive: 0.0475; under setting [13], inactive: 0.102; under setting [14], inactive: 0.0358; under setting [15], inactive: 0.0832; under setting [16], inactive: 0.0818.

Turning to `COc1cccc2c1C(=O)c1c(O)c3c(c(O)c1C2=O)C[C@@](O)(C(=O)CO)C[C@@H]3O[C@H]1C[C@H](N)[C@H](O)[C@H](C)O1`, the “cell viability (log2)” value under setting [5] was inactive: -0.177; the “cell viability (log2)” value under setting [6] was inactive: -0.0878; the “cell viability (log2)” value under setting [7] was active: -0.86; the “cell viability (log2)” value under setting [8] is active: -0.36; the “cell viability (log2)” value under setting [9] is active: -1.59; the “cell viability (log2)” value under setting [10] was active: -0.403. Besides, the “cell viability (log2)” value runs as follows: under setting [11], active: -2.62; under setting [12], active: -1.5; under setting [13], active: -4.26; under setting [14], active: -4.27; under setting [15], active: -4.05; under setting [16], active: -4.25.

With `CC1(C)S[C@@H]2[C@H](NC(=O)[C@H](N)c3ccc(O)cc3)C(=O)N2[C@H]1C(=O)O`, the “cell viability (log2)” value is, setting by setting: under setting [5], inactive: 0.0884; under setting [6], inactive: 0.104; under setting [1], inactive: 0.0883; under setting [2], inactive: 0.0656; under setting [7], inactive: -0.0334; under setting [8], inactive: 0.0742. Also, the “cell viability (log2)” value by setting is: under setting [9], inactive: 0.0733; under setting [10], inactive: 0.103; under setting [3], inactive: 0.14; under setting [4], inactive: 0.178; under setting [11], inactive: -0.017; under setting [12], inactive: 0.0291. In addition, the “cell viability (log2)” value reads like this: under setting [13], inactive: 0.0293; under setting [14], inactive: 0.106; under setting [15], active: -0.676; under setting [16], inactive: -0.0237.

With `CCSc1nnc(-c2ccc([N+](=O)[O-])cc2)n1-c1ccccc1`, the “cell viability (log2)” value runs as follows: under setting [1], inactive: 0.0862; under setting [2], inactive: 0.0888; under setting [3], inactive: 0.0629; under setting [4], inactive: 0.153.

As for `O=C(CCc1ccc(O)cc1)c1c(O)cc(O)cc1O[C@@H]1O[C@H](CO)[C@@H](O)[C@H](O)[C@H]1O`, the “cell viability (log2)” value by setting is: under setting [1], inactive: 0.0367; under setting [2], inactive: -0.0139; under setting [3], inactive: 0.0924; under setting [4], inactive: -0.0379.

On to `S=C(S)OC1CC2CC1C1CCCC21` (stereo not drawn), for which the “cell viability (log2)” value reads like this: under setting [17], inactive: 0.138; under setting [18], inactive: 0.0575; under setting [19], 0.328; under setting [20], inactive: 0.124.

Take `COc1ccc(CN2CCN(Cc3cccc([N+](=O)[O-])c3)CC2)cc1OC`: the “cell viability (log2)” value under setting [1] is inactive: 0.0511, the “cell viability (log2)” value under setting [2] was inactive: 0.032, the “cell viability (log2)” value under setting [3] was inactive: 0.111 and the “cell viability (log2)” value under setting [4] was inactive: 0.138.

Regarding `CNCCCC1c2ccccc2C=Cc2ccccc21`, the “cell viability (log2)” value was inactive: 0.186 under setting [17], inactive: 0.0526 under setting [18], inactive: 0.166 under setting [19] and inactive: 0.0326 under setting [20].

Regarding `CCN1CCC[C@H]1CNC(=O)c1c(OC)ccc(I)c1O`, the “cell viability (log2)” value by setting is: under setting [17], inactive: 0.251; under setting [18], inactive: 0.174; under setting [19], inactive: 0.0364; under setting [20], inactive: 0.15.

In the case of `C[C@]12CCC(=O)C=C1CC[C@@H]1[C@@H]2[C@@H](O)C[C@@]2(C)[C@H]1CC[C@]2(O)C(=O)CO`, the “cell viability (log2)” value under setting [5] was inactive: 0.107; the “cell viability (log2)” value under setting [6] is inactive: -0.0348; the “cell viability (log2)” value under setting [1] is inactive: 0.135; the “cell viability (log2)” value under setting [2] is inactive: -0.115; the “cell viability (log2)” value under setting [17] is inactive: 0.174; the “cell viability (log2)” value under setting [18] was inactive: 0.0437. Further, the “cell viability (log2)” value was inactive: 0.088 under setting [7]; inactive: 0.0811 under setting [8]; inactive: 0.0504 under setting [9]; inactive: 0.0535 under setting [10]; inactive: 0.105 under setting [3]; inactive: -0.0583 under setting [4]. Also, the “cell viability (log2)” value runs as follows: under setting [19], inactive: 0.0143; under setting [20], inactive: 0.118; under setting [11], inactive: 0.122; under setting [12], inactive: 0.0605; under setting [13], inactive: 0.0545; under setting [14], inactive: 0.0667. For the same molecule, the “cell viability (log2)” value by setting is: under setting [15], inactive: 0.0715; under setting [16], inactive: 0.184.

On to `COc1ccc(CCN(C)CCCC(C#N)(c2ccc(OC)c(OC)c2)C(C)C)cc1OC` (stereo not drawn), for which the “cell viability (log2)” value was inactive: 0.0596 under setting [1]; inactive: -0.0063 under setting [2]; inactive: 0.149 under setting [17]; inactive: 0.082 under setting [18]; inactive: 0.0625 under setting [3]; inactive: 0.124 under setting [4]. Moreover, the “cell viability (log2)” value was inactive: 0.0425 under setting [19] and inactive: 0.123 under setting [20].

For `Cc1onc(-c2ccccc2)c1-c1ccc(S(N)(=O)=O)cc1`, the “cell viability (log2)” value reads like this: under setting [1], inactive: 0.0303; under setting [2], inactive: -0.049; under setting [3], inactive: 0.0231; under setting [4], inactive: 0.0913.

For the molecule `CCCc1cc(=O)[nH]c(=S)[nH]1`, the “cell viability (log2)” value was inactive: -0.0121 under setting [1], inactive: 0.118 under setting [2], inactive: 0.116 under setting [3] and inactive: 0.125 under setting [4].

For the origin of these results see the supplement of paper PMC6089552.
